Data taken from publication PMC11915835, “Enhancing the solubility of SARS-CoV-2 inhibitors to increase future prospects for clinical development” (Journal of Virology, 2025).

How the values were obtained:
HEK 293T cells = settings: 10 µM peptide concentration
[1] = cited from earlier work

Compound	Toxicity (MTT) (HEK 293T cells)	Solubility (in words) [1]
Ac-SIDQINATFVDIEYEIKKLEEVAKKLEESYIDLKEL-NH2 [SK]	no toxicity was observed	
CC[C@H](C)[C@H](NC(=O)[C@H](C)NC(=O)[C@H](CCC(=O)O)NC(=O)[C@H](CCC(=O)O)NC(=O)[C@H](CC(C)C)NC(=O)[C@H](CCCCN)NC(=O)[C@H](CCCCN)NC(=O)[C@H](CCSC)NC(=O)[C@H](CCC(=O)O)NC(=O)[C@H](Cc1ccc(O)cc1)NC(=O)[C@H](CCC(=O)O)NC(=O)[C@H](CC(C)C)NC(=O)[C@H](CC(=O)O)NC(=O)[C@H](CC(C)C)NC(=O)[C@H](Cc1ccccc1)NC(=O)[C@@H](NC(=O)[C@@H](NC(=O)[C@H](CC(N)=O)NC(=O)[C@@H](NC(=O)[C@H](CCC(N)=O)NC(=O)[C@H](CC(=O)O)NC(=O)[C@H](CC(C)C)NC(=O)[C@H](CO)NC(C)=O)[C@@H](C)CC)C(C)C)[C@@H](C)O)C(=O)N[C@@H](CCCCN)C(=O)N[C@@H](CCCCN)C(=O)N[C@@H](CC(C)C)C(=O)N[C@@H](CCC(=O)O)C(=O)N[C@@H](CCC(=O)O)C(=O)N[C@@H](CO)C(=O)N[C@@H](Cc1ccc(O)cc1)C(=O)N[C@H](C(=O)N[C@@H](CC(=O)O)C(=O)N[C@@H](CC(C)C)C(=O)N[C@@H](CCCCN)C(=O)N[C@@H](CCC(=O)O)C(=O)N[C@@H](CC(C)C)C(N)=O)[C@@H](C)CC [EK1, reference compound]		high solubility
